Legend:
M64-FAEIR = test: colorimetric IC50 assay of hCA proteins and engineered hCAII binders, M64-FAEIR; assay type: biochemical; details: 300 nM protein, 1 mM pNPA, 25 C, 30 minutes; taken as relative Kd
Procedure: (§1) Kd values for the selected engineered hCAII binders were obtained using the colorimetric assay similar to described in Example 2.
(§2) In the colorimetric assay, 300 nM of wild-type carbonic anhydrase or engineered hCAII binders were aliquoted into a 96-well, clear, flat-bottom plate in 45 μL of 50 mM MOPS (pH7.5), 33 mM Na2SO4, 1 mM EDTA and 0.1% Tween 20. To each column of the plate, a 1/10 dilution series from 1 mM to 0.1 nM of each NTM-derivatized peptide was added and incubated at 25 C for 30 minutes to reach binding equilibrium. To this, 1 mM p-nitrophenylacetate (pNPA) was added to each well and screened on a plate reader at 405 nm. The initial rate of hydrolysis was observed over the first 60 seconds. […] The IC50 value measured in this experiment (see Table 12) provided relative binding affinities of the binders (Kd values).

M64-DAEIR = test: colorimetric IC50 assay of hCA proteins and engineered hCAII binders, M64-DAEIR; assay type: biochemical; details: 300 nM protein, 1 mM pNPA, 25 C, 30 minutes; taken as relative Kd
Procedure: as §1, §2

M64-AAEIR = test: colorimetric IC50 assay of hCA proteins and engineered hCAII binders, M64-AAEIR; assay type: biochemical; details: read-out: IC50 values (μM), M64-AAEIR; 300 nM protein, 1 mM pNPA, 25 C, 30 minutes; taken as relative Kd
Procedure: as §1, §2

M64-EAEIR = test: colorimetric IC50 assay of hCA proteins and engineered hCAII binders, M64-EAEIR; assay type: biochemical; details: 300 nM protein, 1 mM pNPA, 25 C, 30 minutes; taken as relative Kd
Procedure: as §1, §2

M64-LAEIR = test: colorimetric IC50 assay of hCA proteins and engineered hCAII binders, M64-LAEIR; assay type: biochemical; details: 300 nM protein, 1 mM pNPA, 25 C, 30 minutes; taken as relative Kd
Procedure: as §1, §2

[1] = target: biotinylated peptides M64-P1-P2-ΔK-(PEG9)(PEG9)-K(Biotin); test: bio-layer interferometry (BLI) of engineered binders; assay type: binding; details: P1 = D; M64 peptide; 22° C.
Procedure: Bio-layer interferometry (BLI) is an optical analytical and label-free method to directly measure kinetics between two biomolecules. In this technology, one biomolecule is immobilized on a surface in the form of a small tip, this tip is then dipped in a microplate containing the second biomolecule of interest. White light is directed down the tip to the tip surface where the binding is measured as a shift in wavelength that is caused as a result of the interference between incident and reflected light. More specifically, there are two surfaces at the tip, a reference layer and the experiment layer, the latter is where the biomolecules immobilize and bind. As the distance between these two layers increases due to biomolecules binding and immobilizing, the shift between incident and reflected wavelengths increases as caused by the light waves interfering at the two layers. Therefore, the size and the number of biomolecules that bind onto the surface is proportional to the shift measured. This shift is plotted against time to give a sensogram from which kon, koff and ultimately KD can be calculated.
All binding experiments were carried out on an 8-channel Gator Prime (Gator Bio) instrument. To measure the affinity of each binder-peptide pair, biotinylated peptides were immobilized on Streptavidin coated biosensor tips (Gator Bio), which were dipped in six binder concentrations and two controls. All binding assays were performed at 22° C. in 96 well polypropylene plates (Gator Bio) and carried out in triplicates with a well volume of 200 uL. Streptavidin coated biosensors were hydrated in the baseline buffer for 10 mins before each assay. […]
Analysis of binding curves. […] Next, the qualifying curves were filled globally and the kinetic parameters kobs, kon, koff and KD were calculated along with their errors. The errors were inspected to be less than […] of its calculated value. Finally, the theoretical shift at equilibrium from the qualifying curves were filled on a steady state plot, and the KD and Rmax (theoretical maximum binding capacity in nm) were calculated from that curve. […]

Molecule	IC50 (M64-FAEIR)	IC50 (M64-DAEIR)	IC50 (M64-AAEIR)	IC50 (M64-EAEIR)	IC50 (M64-LAEIR)	Kd [1]	koff [1]	kon [1]
58 (protein, Carbonic anhydrase I, M=M64) DWGYDDKNGPEQWSKLYPIANGNNQSPVDIKTSETKHDTSLKPISVSYNPATAKEIINVGHSFHVNFEDNDNRSVLKGGPFSDSYRLFQFHFHWGSTNEHGSEHTVDGVKYSAELHVAHWNSAKYSSLAEAASKADGLAVIGVLMKVGEANPKLQKVLDALQAIKTKGKRAPFTNFDPSTLLPSSLDFWTYPGSLTHPPLYESVTWIICKESISVSSEQLAQFRSLLSNVEGDNAVPMQHNNRPTQPLKGRTVRASF	0.012 µM	0.136 ± 0.038 µM	0.109 µM	1.09 µM	0.016 µM	–	–	–
82 (protein, Synthetic binder, S254_0083) ASPDWGYDDKNGPEQWSKLYPIANGNNQSPVDIKTSETKHDTSLKPISVSYNPATAKEIINVGHSFRVNFEDNDNRSVLKGGPFSDSYRLYQFHFHWGSTNEHGSEHTVDGVKYSAELHVVHWNSAKYSSLAEALSKADGIAVIGVLMKVGEANPKLQKVLDALQAIKTKGKRAPFTNFDPSTLLPSSLDFWTYPGSWTAPPLYEIVTWIILKESISVSSEQLAQFRSLLSNVEGDNAVPMQHNNRPTQPLKGRTVRASF	–	–	–	–	–	28.7 nM	0.000119 s⁻¹	4170 M⁻¹ s⁻¹

From patent US12467928B2, “N-terminal modifier agents and binders for treating and analyzing peptides” (Encodia, Inc., priority 2023, dated 2025)
